Reference: PubChem BioAssay AID1458 (National Center for Advancing Translational Sciences (NCATS), 2008)
Among all 210,000 compounds or so, about 5,900 (2.8%) were called active. Inconclusive results, whose numbers are uncertain, are shown with a selection of clear calls. Calls follow the shape of the dose curve; as a rule, active = well fitted activation curve with a large enough effect; inconclusive = small, poorly fitted or top-dose-only effect; inactive = no such curve, though single readings can be large or run the other way. Where the call is inconclusive, the potency comes from a doubtful curve fit.
Potency is read from the fitted curve at half-maximal effect; tags tell the direction and shape of the fitted curve.

Assay: qHTS Assay for Enhancers of SMN2 Splice Variant Expression; also: nearly all actives have a fitted effect of over 55% in size; as to activity change, positive = activation: % of control where 0% means no effect
Details: HEK293 SMN2-luciferase splicing reporter, luminescence, 30-36 h; activity change, positive = activation: at 46.1 µM (top of the series)
Summary of the method: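 HEK293 cells carry an SMN2 […]–luciferase reporter in which exon 7 inclusion puts luciferase in frame. Cells were plated 10-12 h before compound addition, then incubated 30-36 h at 37C. ONE-Glo luminescence was read; sodium butyrate at 4.5 mM final served as control.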
With `Cc1nnc(SCC2=C(C(=O)O)N3C(=O)C(NC(=O)C(C)n4nc(C(F)(F)F)cc4C)C3SC2)s1` (centres undefined) the “activity change, positive = activation” value was inactive: -11.8%. In the case of `COc1ccc(OC)c(NC(=O)C2CCC(CNc3c(N4CCC(C)CC4)c(=O)c3=O)CC2)c1` (centres undefined), the Potency is reported as active: 15.8 µM. For `COc1ccc(CN(C(=O)/C=C/C(=O)c2ccc(OC)cc2O)C(C(=O)NC2CCCCC2)c2ccncc2)cc1` (centres undefined), the “activity change, positive = activation” value was inactive: -11.2%. With `COCc1nnc(NS(=O)(=O)c2ccc(Br)cc2)s1` the Potency was inconclusive: 25.1 µM [activator, partial curve, poor fit]. For `Nc1ccc(C(=O)Nc2ccc3nc(-c4ccncc4)[nH]c3c2)cc1`, the Potency was inconclusive: 2.24 µM [activator, partial curve, poor fit]. In the case of `COc1ccc2nc(Nc3nc4cc5c(cc4s3)OCO5)sc2c1`, the Potency is reported as inconclusive: 22.4 µM [activator, single point]. In the case of `O=C(NCCN1CCN(c2ccccc2)CC1)Nc1ccccc1Br`, the Potency is reported as inconclusive: 0.398 µM [activator, full curve, poor fit]. For `CCN(CC)CCCNc1nc2cc(OC)c(OC)cc2c2nc(-c3cccnc3)nn12`, the Potency was inconclusive: 8.91 µM [activator, partial curve, poor fit]. In the case of `O=C(Nc1ccccc1)N1CCCC2(CCN(C(=O)c3cccc(F)c3)CC2)C1`, the “activity change, positive = activation” value is reported as inactive: -5.9%. With `COc1ccc(/C=C/C(=O)NCCN2CCOCC2)cc1OC` the Potency was inconclusive: 6.31 µM [activator, partial curve]. With `O=C(Nc1cccc(NC(=O)c2ccc(Br)o2)c1)c1ccccc1` the Potency was inconclusive: 12.6 µM [activator, partial curve, poor fit]. With `Cc1ccc(-c2ccc(=O)n(CCC(=O)NCCN3CCCCC3C)n2)cc1` (centres undefined) the Potency was inconclusive: 3.55 µM [activator, partial curve, poor fit]. With `C=CCn1c(C)cc(C(=O)CSc2nc3ccccc3o2)c1C` the Potency was inconclusive: 2.82 µM [activator, partial curve]. For `Cn1c(=O)n(C)c2cc(/C=C3/SC(=O)N(CC(=O)N4CCOCC4)C3=O)ccc21`, the “activity change, positive = activation” value was inactive: 6.77%. With `Cc1ccc(CNc2nc3ccccc3c3nc(-c4cccc(C)c4)nn23)cc1` the “activity change, positive = activation” value was inactive: 24.7%. For `CCCSc1oc(-c2cccs2)nc1S(=O)(=O)c1ccc(Cl)cc1`, the “activity change, positive = activation” value was inactive: -10.5%. For `O=C(Nc1nnc(-c2ccncc2)s1)C1CCCO1` (centres undefined), the Potency was inconclusive: 11.2 µM [activator, single point]. For `CN(C1CCCC1)C1CCN(C(=O)CNC(=O)/C=C/c2ccccc2)CC1`, the Potency was inconclusive: 35.5 µM [activator, partial curve, poor fit]. For `O=C1CCCN1CCCNS(=O)(=O)c1ccc(Cl)c(C(=O)N2CCOCC2)c1`, the Potency was inconclusive: 5.62 µM [activator, single point].
